# Source: publication PMC4336329 (PLoS ONE, 2015)
# The campaign covered roughly 310,000 compounds. About 2,200 (0.71%) showed an effect of 50% or more. The effect is printed as a negative number. Some of the results follow.
# Target: human ether-à-go-go-related gene (hERG) potassium channel (human, UniProt Q12809)
# Experiment: primary screen, population patch clamp on CHO cells stably expressing hERG
# Sequence of human ether-à-go-go-related gene (hERG) potassium channel (Q12809 whole entry, looked up): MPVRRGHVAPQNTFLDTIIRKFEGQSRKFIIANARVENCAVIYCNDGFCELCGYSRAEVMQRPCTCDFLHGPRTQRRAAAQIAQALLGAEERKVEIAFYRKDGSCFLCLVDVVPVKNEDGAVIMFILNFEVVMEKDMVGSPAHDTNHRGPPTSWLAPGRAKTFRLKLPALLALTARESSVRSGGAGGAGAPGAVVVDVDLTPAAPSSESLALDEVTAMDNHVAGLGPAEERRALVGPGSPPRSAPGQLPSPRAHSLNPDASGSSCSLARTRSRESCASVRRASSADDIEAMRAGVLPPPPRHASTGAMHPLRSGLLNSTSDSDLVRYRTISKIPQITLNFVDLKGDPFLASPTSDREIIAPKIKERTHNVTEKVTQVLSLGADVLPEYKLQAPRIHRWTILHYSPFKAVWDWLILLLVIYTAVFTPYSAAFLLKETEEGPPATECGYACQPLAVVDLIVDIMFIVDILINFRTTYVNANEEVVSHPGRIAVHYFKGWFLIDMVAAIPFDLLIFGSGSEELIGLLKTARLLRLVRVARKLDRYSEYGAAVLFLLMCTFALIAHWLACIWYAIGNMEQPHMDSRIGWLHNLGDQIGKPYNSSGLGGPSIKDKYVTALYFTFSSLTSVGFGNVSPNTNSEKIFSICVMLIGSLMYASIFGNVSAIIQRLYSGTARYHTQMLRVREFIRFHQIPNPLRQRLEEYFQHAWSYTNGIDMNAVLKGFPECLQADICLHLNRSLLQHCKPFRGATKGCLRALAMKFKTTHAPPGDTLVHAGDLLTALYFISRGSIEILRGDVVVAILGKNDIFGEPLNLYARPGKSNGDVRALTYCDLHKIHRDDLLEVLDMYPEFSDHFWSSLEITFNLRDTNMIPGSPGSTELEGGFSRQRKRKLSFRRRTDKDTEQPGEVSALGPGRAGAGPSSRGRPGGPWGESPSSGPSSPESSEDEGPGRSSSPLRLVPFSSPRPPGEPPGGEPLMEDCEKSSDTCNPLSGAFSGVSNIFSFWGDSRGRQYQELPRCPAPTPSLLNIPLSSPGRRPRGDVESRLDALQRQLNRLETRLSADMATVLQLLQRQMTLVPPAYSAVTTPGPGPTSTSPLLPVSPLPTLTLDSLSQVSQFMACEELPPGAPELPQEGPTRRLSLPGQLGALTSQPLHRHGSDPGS
row,SMILES,"hERG current change (%, negative = inhibition) at 1uM"
1,Cc1cc(/C=C2\SC(=O)N(C)C2=O)c(C)n1-c1cccc(C(=O)O)c1,17.4%
2,Cc1cccc(-n2cc(-c3ccccc3)[nH]c2=S)c1,8.99%
3,Cc1nc2c(ncn2-c2ccccc2)c(=O)n1NC(=O)CN1CCOCC1,16.6%
4,Cc1[nH][nH]c(=O)c1C=NCc1cccnc1,14.3%
5,COc1cc(Cl)c(C)cc1NC(=O)CN1C(=O)C2CCCCC2C1=O (centres unmarked),8.86%
6,CCOc1ccc(C(=O)CC(=O)C(=O)NCCc2ccc(OC)c(OC)c2)cc1,4.25%
7,CCOC(=O)c1sc(NC(=O)CCc2ccc(OC)cc2)nc1C,22.4%
8,CCC(C)NC(=O)/C=C/c1ccc(S(=O)(=O)NCc2ccco2)cc1 (centres unmarked),5.24%
9,CCOCCCNC(=O)C(c1ccc(Cl)cc1)N1CCN(C(=O)c2ccco2)CC1 (centres unmarked),5.23%
10,Cc1ccc(N2C(=O)N(CC(=O)Nc3cccc(Cl)c3)C(=O)C2C)cc1 (centres unmarked),3.78%
11,CC(C)=CC(=O)OCC(=O)Nc1ccc(SC(F)F)cc1,5.18%
12,CCCCCCSC1=C(C#N)C(c2ccc(C)o2)CC(=O)N1 (centres unmarked),12.4%
13,O=S(=O)(Nc1n[nH]c(C(F)(F)F)n1)c1ccccc1,-0.239%
14,CC12CCC(=O)N1C(C(=O)NNC(=O)c1cccc(Cl)c1)CS2 (centres unmarked),13.2%
15,CCCCN(CC)CCCNC(=S)Nc1ccc2nc3n(c(=O)c2c1)CCCCC3,8.48%
16,CC(NC(=O)COc1ccc(/C=N/NC(=O)C(=O)Nc2ccccc2Br)cc1)c1ccccc1 (centres unmarked),15.9%
17,Cc1cc(C)cc(NC(=S)NCc2cccs2)c1,-2.37%
18,COc1ccc(NC(=O)CSc2nnc(Cn3cnc4ccccc43)n2C)cc1,4.38%
19,CCCCCCCOc1ccc(C2(C)NC(=O)NC2=O)cc1 (centres unmarked),13.2%
20,CC(C)CN(CCOc1cccc(N2C(=O)C3=C(CCCC3)C2=O)c1)CC(C)C,-6.8%
21,Cc1cc(C)nc(N/N=C/c2cn[nH]c2-c2ccccc2)n1,5.15%
22,Cc1ccc(NC(=O)c2ccc(OC(=O)CCN3C(=O)c4ccccc4C3=O)cc2)cc1,3.77%
23,COc1ccc(-c2cc(C(=O)Nc3nc4ccccc4s3)c3ccccc3n2)cc1OC,16.7%

row,SMILES,"hERG current change (%, negative = inhibition) at 1uM"
1,COc1ccc(C(=O)CCN2CCCC(C)C2)cc1.Cl (centres unmarked),3.18%
2,COc1ccccc1C1=Nn2c(nnc2C2CCCCC2)SC1,-1.01%
3,COc1ccc(N(C(=O)c2cnccn2)C(C(=O)NC2CCCCC2)c2cc(OC)c(OC)c(OC)c2)cc1 (centres unmarked),18.5%
4,CCN(C(=O)CSc1nc2cc(C(=O)OC)ccc2c(=O)n1Cc1ccco1)c1cccc(C)c1,7.87%
5,CC1CCCC(NC(=O)C2CCN(C(=O)Nc3ccccc3)CC2)C1C (centres unmarked),-0.501%
6,CCOC(=O)Cn1nc(NC(=O)COc2ccc(F)cc2)cc1C,6.51%
7,COCc1nnc(NC(=O)CC(C)c2ccccc2)s1 (centres unmarked),21.9%
8,COC(=O)C1=C(C)NC2=C(C(=O)C(C(=O)OC)C(c3ccc(OC)cc3)C2)C1c1ccccn1 (centres unmarked),5.1%
9,COc1ccc(C(=O)OCc2cc(=O)n3c(C)csc3n2)cc1F,8.66%
10,CCOC(=O)c1c(NC(=O)CSc2nnc(CNc3ccc(OC)cc3)n2C)sc(C)c1C,10.2%
11,COc1ccc(S(=O)(=O)N2CCCCCC2)cc1C(=O)OCC(=O)Nc1cc(C)on1,5.47%
12,CCCNC(=O)COC(=O)/C=C/c1ccco1,2%
13,COc1cccc(CN2CCNC(=O)C2CC(=O)N2CCOc3ccccc3C2)c1OC (centres unmarked),10.6%
14,c1ccc2c(CNC3CCCCC3)c[nH]c2c1,-1.89%
15,CCOc1ccc(C(=O)NCCc2cnc[nH]2)cc1,14.7%
16,COc1cccc(NC(=O)CN2C(=O)NC(CCc3ccccc3)C2=O)c1 (centres unmarked),-4.25%
17,C/C(=N\Nc1ccccc1)c1c(O)cc(C)oc1=O,11%
18,O=C1/C(=C/c2ccc3c(c2)OCO3)Oc2cc(OCC(=O)N3CCC[C@H]3C(=O)O)ccc21,7.82%
19,Cc1cc(C)c(C#N)c(N2CCCC2)n1,7.92%
20,CC(=O)N/C(=C\c1ccc(F)cc1)C(=O)NC(Cc1c[nH]c2ccccc12)C(=O)O (centres unmarked),-4.65%
21,Cc1cc(OCC(=O)NCCN2CCOCC2)cc(C)c1Cl,12.8%
22,OC(CN1CCCCC1)c1c[nH]c2ccccc12 (centres unmarked),7.27%
23,COCCNC(=O)c1cccc(OC2CCN(Cc3ccc(OC(F)F)cc3)CC2)c1,-75.4%

row,SMILES,"hERG current change (%, negative = inhibition) at 1uM"
1,C=CCNc1sc(C(=O)C2CC2)c(N)c1C#N,4.1%
2,Cc1nc(CSc2ccc(Cl)cc2)cc(N2CC(C)OC(C)C2)n1 (centres unmarked),6.49%
3,CSc1ccccc1OCc1cc(C(=O)NC2CCc3ccccc32)no1 (centres unmarked),17.2%
4,O=C(Nc1ccccc1Cl)O/N=C/c1ccncc1,6.9%
5,O=C(OCc1cccc(C(F)(F)F)c1)c1ccc[nH]c1=O,13.3%
6,CCOC(=O)NC(=O)/C(C=Nc1ccc(Cl)c(Cl)c1Cl)=C(\C)O,8.08%
7,N#Cc1ccc(-c2csc(-c3ccno3)n2)cc1,9.79%
8,CCOC(=O)C1CCN(C(c2cc3ccc(C)c(C)c3[nH]c2=O)c2nnnn2C2CCCCC2)CC1 (centres unmarked),7.02%
9,Cn1ccnc1C(O)(c1ccccc1)c1ccccc1,0.199%
10,Cc1nc(N)sc1C(=O)N/N=C/c1ccccc1[N+](=O)[O-],16.1%
11,CCCn1c(N)c(N(CCOC)C(=O)COC(=O)CSc2cc(C)c3ccccc3n2)c(=O)[nH]c1=O,11.4%
12,CCOC(=O)c1cc2c(=O)n3ccccc3nc2n(CCOC)c1=NC(=O)c1ccncc1,-1.41%
13,CCOC(=O)c1ccc(NC(=O)COc2ccccc2CNCCc2ccccc2)cc1.Cl,-25.5%
14,Cc1ccc(Oc2cc(NN3CCCCC3)c([N+](=O)[O-])cc2[N+](=O)[O-])c(Cl)c1,8.84%
15,Cc1ccc(S(=O)(=O)N2CCCC2CNC(=O)C(=O)NCc2cccs2)cc1 (centres unmarked),15.2%
16,COc1ccc(/C=N/NC(=S)Nc2cccc(C(=O)O)c2)cc1,3.2%
17,Cc1ccc(S(=O)(=O)N2CCOCC2)cc1NC(=O)COc1ncnc2ccccc12,19.1%
18,COc1cc(NC(=O)c2ccc(NS(=O)(=O)c3c(C)noc3C)cc2)cc(OC)c1,5.99%
19,CCOC(=O)C1=C(CN2CCN(c3ccc(F)cc3)CC2)NC(=O)NC1c1cccs1 (centres unmarked),-4.28%
20,O=C(c1cccc(F)c1)N1CCN(c2cc(N3CCCCC3)c(F)cc2[N+](=O)[O-])CC1,5.29%
21,O=C(c1ccc2c(=O)n3c(nc2c1)CCCCC3)N1CCCCC1,18.1%
22,CC(Oc1ccccc1)C(=O)N1CCN(c2ccc(N3CCCCCC3)nn2)CC1 (centres unmarked),-7.57%
23,N/C(=N\OC(=O)c1ccc([N+](=O)[O-])cc1)c1ccc(Br)cc1,9.43%

row,SMILES,"hERG current change (%, negative = inhibition) at 1uM"
1,CCOc1ccccc1NC(=O)Cn1c(=O)n(CCC(=O)NC2CCCC2)c(=O)c2ccccc21,10%
2,CCCCCOCC(O)CCC(=O)NN (centres unmarked),21.2%
3,Cc1ccccc1C(C(=O)NC1CCCC1)N(C(=O)Cc1cccs1)c1ccc2c(c1)OCCO2 (centres unmarked),7.29%
4,CCOc1ccc(N2CC(C(=O)N3CCN(C(=O)c4ccco4)CC3)CC2=O)cc1 (centres unmarked),-41.3%
5,COc1ccc(CC(=O)Nc2ccc3c(c2)CCC3)cc1S(=O)(=O)N1CCOCC1,4.84%
6,C[C@H](NC(=O)[C@@H]1Cc2ccccc2CN1C(=O)OC(C)(C)C)C(=O)NCC1CCCO1 (some centres unmarked),22%
7,COc1ccc(NC(=O)C(C)(C)Oc2ccc(Cl)cc2)cn1,-5.55%
8,CCCOc1ccc(N2C(=O)CC(NCc3cccs3)C2=O)cc1 (centres unmarked),0.643%
9,CCNC(=O)Cn1cnc2c1c(=O)n(C)c(=O)n2C,14.7%
10,CC(C)(C)c1cc(NC(=O)c2ccco2)no1,-2.49%
11,Cc1ccc2c(c1)C1CC(C)(O2)N(c2cccc(C(=O)NCc3ccccn3)c2)C(=O)N1 (centres unmarked),16.8%
12,COc1ccc(NC(=S)Nc2cccc([N+](=O)[O-])c2)cc1,11.7%
13,CCOC(=O)c1cnc(SCC(=O)c2ccc(C)cc2)nc1N,15.5%
14,O=C(COC(=O)c1cc(S(=O)(=O)N2CCOCC2)ccc1Cl)NCCc1ccccc1,-4.44%
15,CC(O)CN1CCN(C(=O)CN2C(=O)NC(c3ccccc3)(c3ccccc3)C2=O)CC1 (centres unmarked),8.29%
16,CCOC(=O)C1=C(C)NC(=O)NC1c1cccnc1 (centres unmarked),-0.592%
17,COC(=O)c1ccc(-c2ncc[nH]2)cc1,10%
18,COc1ccc(C(=O)CN2CCN(CCN3C(=O)c4cccc5cccc(c45)C3=O)CC2)cc1,-2.64%
19,COc1ccc(OC)c(NC(=O)NCc2cccnc2)c1,4.53%
20,COC(=O)c1sccc1NC(=O)/C=C/c1ccc(Cl)cc1Cl,12.3%
